The list shows a part of the results.
T1: UNK ZnF1-3 (human, UniProt Q9C0B0 31-174)
T1 sequence: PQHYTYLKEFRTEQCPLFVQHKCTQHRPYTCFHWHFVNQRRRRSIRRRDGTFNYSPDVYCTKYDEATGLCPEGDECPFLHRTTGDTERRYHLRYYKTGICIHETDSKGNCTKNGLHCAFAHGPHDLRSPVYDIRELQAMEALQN

B1: chr4:140556289:140556290:+_ENSMUSG00000036622_ENSMUST00000037055|mus_mus|mus_mus_mus_hu_False|78_88 (ssRNA)
RNA: GGGAGUUCUACAGUCCGACGAUCGAUGGAGCUCACCAGGCCCCCUUUGGCUGUGCAGAACCCUGUCCGGGUCACCACUGCCAGGACGUGCGGUCCCACAUAGGCCCGGGCCUGCAAGAUGAGGGUCCCGCAGAAGAGUGUGUGCAACAGAGGAUUGAGCAUCA
B2: chr11:69803913:69803914:+_ENSMUSG00000018559_ENSMUST00000108593|mus_mus|FALSE|FALSE (ssRNA)
RNA: GGGAGUUCUACAGUCCGACGAUCCCCGAAACCCCAGUCCCCACCCACAGCCCAGCCCUUGGAGCAGGAGUGAAGAAUUAGAUCAGUUUUGUAUAAGAGUUUUUAAAAAAAUCAAAUCACAACAAAGUUGAAUUGGCUUCUUUUCAACAGAGGAUUGAGCAUCA
B3: chr7:150710151:150710152:-_ENSMUSG00000059119_ENSMUST00000072727|mus_hu|FALSE|FALSE (ssRNA)
RNA: GGGAGUUCUACAGUCCGACGAUCCACAGCCCGCGGGACUAUCCGCUCACGGAAAAAGUGUCCAAUUUCAAAAUCAGAGGCUAAUGUGAAUUCAGAAUCUUCAUCCAGUGAUUCUCCAUCCCCGGAUGCUUUCAAUGGAUUGAACAACAGAGGAUUGAGCAUCA
B4: chr12:133780691:133780692:+_ENSG00000090612_ENST00000541009|hu_hu|FALSE|FALSE (ssRNA)
RNA: GGGAGUUCUACAGUCCGACGAUCUCAUAUGGUUUUUCACCUGAAUGAGUUCUCAUGUGUAUAAUUAGGUAUGACUUGCUGCUAAAAGCUUUCCCACAUUCACUGCACCCAUAAGGCUUUUCCCCUGCAUGAGUUCGCUGAUGUCAACAGAGGAUUGAGCAUCA
B5: chr1:39494447:39494448:+_ENSG00000168653_ENST00000372967|hu_mus|hu_hu_hu_mus_False|18_88 (ssRNA)
RNA: GGGAGUUCUACAGUCCGACGAUCGCACCGAGCGGCGUUCUUAUAGGGCUGUUCACCGCUUAGGAACAUAAAGUGCCGGUCCAGGCUGAUGCCCAGCUUUUUCUGUAUGUCAAGGAAAGGCAUGGCCCUGCAGUGCCCUUGUCACAACAGAGGAUUGAGCAUCA
B6: chr1:225611761:225611762:-_ENSG00000143815_ENST00000272163|hu_mus|hu_hu_hu_mus_True|88_88 (ssRNA)
RNA: GGGAGUUCUACAGUCCGACGAUCCCAGGCCAUCGGCCUCUGACCACUUCACCAUCGACAAACUUCCUACUUGGCAUUUUCUAAAAUUAGUCUGGCCGCGCUCCGGCGGGAACUCCAGCCACUCCAGGACAGUCACCAGCAGCCCAACAGAGGAUUGAGCAUCA
B7: chr3:150289932:150289933:+_ENSG00000144895_ENST00000460851|hu_hu|hu_hu_hu_mus_False|98_98 (ssRNA)
RNA: GGGAGUUCUACAGUCCGACGAUCCUUGUAGUUUUUAACAUCCCACACUUCCAUUUGUCCUCGAAGAUUUCCAAAUCCAGCCAGCACUAAUAUAUGUCCAUGAGGGCUAUAGAAGGCUGCGUUGCGAGGACCAGUCCCAAAGUCCAACAGAGGAUUGAGCAUCA
B8: chr18:35732379:35732380:+_ENSMUSG00000037236_ENSMUST00000166793|perfect_dup|FALSE|FALSE (ssRNA)
RNA: GGGAGUUCUACAGUCCGACGAUCCAUUCUCUCAUACUCACUGUCAAAUUUAUGAUAGUUAUGCGAGGUCUCACCAAAAAAAGAAUCAUCCCUACACCUUUCUCCAUCUCUUAAUCUGUCAUCUUCAUAAUCCAUUCUGUCAUACAACAGAGGAUUGAGCAUCA
B9: 28365595_28365715_1176_CDS_ENSMUSG00000049643_ENSMUST00000067386|mouse|control|control (ssRNA)
RNA: GGGAGUUCUACAGUCCGACGAUCCUUACUCUUGGUGCUUGUGACCUGGCUGUCCUGUGCCUCGGACACAACGGCAGCCUUGCCCAGUCUCUGAAGGAUGCUGACUUUGGGCAGGGAAUCCGGCUUCUUCUCCAGCCCAGGGCGCAACAGAGGAUUGAGCAUCA
B10: chr1:163112212:163112213:-_ENSG00000143248_ENST00000313961|hu_hu|hu_hu_hu_mus_False|48_108 (ssRNA)
RNA: GGGAGUUCUACAGUCCGACGAUCUUUAUUUAUCCAGAAGAGUGAGUUACAUACUAGGCAAAGUAUUGGAUACAAUAAUCAGGAAACAAACACAAUUGGUCCAGAAUUUAAAACUUUAUGAGCGAAGUGCUGGCACAGGACUUACAACAGAGGAUUGAGCAUCA
B11: chr2:198351390:198351391:-_ENSG00000144381_ENST00000345042|hu_hu|hu_hu_hu_mus_False|1_8 (ssRNA)
RNA: GGGAGUUCUACAGUCCGACGAUCUCAUUCCCACCCUCCACAGAAAGGCUGCUUCUGAACUCUCAUGUGGUGACACAGCGCUACAGUCCUGAUGCUCACAGAACAGUAGAGAUGCCUCAGUGAUUUAUUAAGUUGAAAGCAGUACAACAGAGGAUUGAGCAUCA
B12: chr3:20017139:20017140:+_ENSG00000144566_ENST00000273047|hu_mus|motif|central (ssRNA)
RNA: GGGAGUUCUACAGUCCGACGAUCGAUAUCAUACACAACUAUGGCUGCUUGUGCUCCUCGGUAGUACAUUGGUGCGGAGCGGUGAUACCGUUCUUGACCAGCUGUAUCCCAUAUUUCAAAUUUUACUGUUGUGUCAUCAAGACACAACAGAGGAUUGAGCAUCA
B13: chr3:52742126:52742127:+_ENSG00000114902_ENST00000602728|hu_hu|FALSE|FALSE (ssRNA)
RNA: GGGAGUUCUACAGUCCGACGAUCGAAACAUUAAAAUGGUUAACUCAUAAUGAAUUAUAAAACUUUGAUAGUUACAUUGUACUAUCAUUUAUGAGGCAUUUAUUUUUCAUUAUUUACACCUGAAAGAAACUUCAUACUUGUGUGCAACAGAGGAUUGAGCAUCA
B14: chrX:109746815:109746816:+_ENSMUSG00000025529_ENSMUST00000071814|perfect_dup|FALSE|FALSE (ssRNA)
RNA: GGGAGUUCUACAGUCCGACGAUCUGUUUUAAAGUCACAGUGCCUGCACUGAUGAAUCUUCCUACCCUUAUGGAUAUCACUAUGCUUUUUGAGCUCAGAAGGACGAUGAAAACCUUUAUCACAGACCUCACAUUUGUGAGGAAACAACAGAGGAUUGAGCAUCA

molecular target: T1, UNK ZnF1-3; assay: nsRBNS (natural sequence RNA bind-n-seq); RBNS binding buffer (assumed for nsRBNS): 25 mM Tris pH 7.5, 150 mM KCl, 3 mM MgCl2, 0.01% Triton X-100, 500 ug/ml BSA, 20 U/ml SUPERase-In, 4 C; UNK is unkempt and MSI1 is Musashi-1; names of the RNAs are library labels; protein concentration not given here; high values mean tight binding

**Q.** For B1, which binding signal is on record?
**A.** The binding signal was 0.918 enrichment R.

**Q.** How did the binding signal turn out when B2 was run?
**A.** The binding signal was 1.75 enrichment R.

**Q.** How did the binding signal turn out when B3 was run?
**A.** The binding signal was 0.738 enrichment R.

**Q.** How did the binding signal turn out when B4 was run?
**A.** Its binding signal is 0.582 enrichment R.

**Q.** With B5 as the binder, how does the binding signal read?
**A.** Its binding signal is 0.872 enrichment R.

**Q.** How did the binding signal turn out when B6 was run?
**A.** Its binding signal is 1.26 enrichment R.

**Q.** Which binding signal does the source give for B7 here?
**A.** Its binding signal is 1.16 enrichment R.

**Q.** Which binding signal does the source give for B8 here?
**A.** The binding signal was 1.49 enrichment R.

**Q.** B9 was tested. Which binding signal did it give?
**A.** The binding signal was 0.615 enrichment R.

**Q.** How did the binding signal turn out when B10 was run?
**A.** The binding signal was 1.85 enrichment R.

**Q.** For B11, which binding signal is on record?
**A.** Its binding signal is 1.65 enrichment R.

**Q.** B12 was tested. Which binding signal did it give?
**A.** The binding signal was 0.812 enrichment R.

**Q.** B13 was tested. Which binding signal did it give?
**A.** Its binding signal is 0.714 enrichment R.

**Q.** With B14 as the binder, how does the binding signal read?
**A.** Its binding signal is 0.678 enrichment R.
